Experimental data: the supplement of paper PMC10338343
± gives the standard deviation. This is a selection; strong and weak results do not stand in their true shares.

System: MIWI (PIWIL1) piRISC loaded with piRNA #1 (30 nt)
Experiment: pre-steady-state target cleavage rate (min^-1); MIWI and MILI are mouse PIWI proteins and EfPiwi is from a freshwater sponge; tags in brackets are library labels; higher = faster piRNA-guided slicing of the target
Conditions: guide: piRNA #1 5'p-UGAGGUAGUAGGUUGUAUAGUAUCCAGAGG; auxiliary factor: 500 nM mouse GTSF1
In short: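 The pre-steady-state cleavage rate was derived from a burst-and-steady-state fit of Cleave-'n-Seq data. For these assays, 1 nM active affinity-purified piRISC loaded with a single synthetic guide was mixed with […] a transcribed, DNA-blocked target RNA library in HEPES–potassium acetate buffer at 33 °C, with or without 500 nM GTSF1 partner protein, for 0–8 or 0–960 min. Sequencing counts of uncleaved targets were normalised to depth and to weakly complementary targets, and k3 was capped at 0.0001 min^-1 after three trials were pooled.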
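Also: 1 nM active piRISC with 0.1 nM target library at 33 °C single turnover.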

| Sequence | pre-steady-state target cleavage rate |
| --- | --- |
| GGAGACCUAUCUAUACUACCUACAACCUCA | 0.0031 ± 0.0021 |
| GGAGACGAUACAUUACAACCUACUACCUCA | 0.973 ± 0.11 |
| GGACUGGAUAGUAUACUACCUACUACCUCA | 0.453 ± 0.06 |
| GGAGACCAUACUAUAUAACCUACUACCUCA | 1.55 ± 0.1 |
| GGAGACCUAUGUAUACAACCUACUACCACA | 0.096 ± 0.015 |
| GGAGACGAUACUAUUCAACCUACUACCUGA | 0.528 ± 0.072 |
| GGACUGGAUACUAUAGAACGUACUACCUCA | 0.381 ± 0.041 |
| GGAGAGGACACUAUACAACCUACUACCUCA | 1.48 ± 0.085 |
| GGACAGGAUACUAUACAACCUACUUCCUCA | 0.0423 ± 0.013 |
| CCUCAGGAUACUUUACAACCUACUACCUCA | 2.1 ± 0.13 |
| GGACUGGAUACUAUACAACCUUCUUCCUCA | 0.00382 ± 0.0027 |
| GGACUGGAUACUAUAGAAGCUACUACCUCA | 0.816 ± 0.05 |
| GGACUGGAAACUAUACAAGCUACUACCUCA | 0.909 ± 0.071 |
| GGAGUGGAUACUUUACAACCUAGUACCUCA | 0.221 ± 0.034 |
| GGAGACCUUACUUUACAACCUACUACCACA | 0.484 ± 0.051 |
| CCUCAGGUUACUAUACAACCUACUACCUCA | 2.5 ± 0.16 |
| GCUCUGGAUACUGAUACAACCUACUACCUCA | 1.39 ± 0.092 |
| GGAGUGGAUACUAUACAACCUACUACCUUA | 0.77 ± 0.054 |
| GCUCUGCAUACUAUACAACCAACUACCUCA | 0.145 ± 0.015 |
| GGAGACCUAUGUAUACAACCUACUACGACA | 0.00645 ± 0.002 |

| Sequence | pre-steady-state target cleavage rate |
| --- | --- |
| GGAGACGAUACUAUACAACCUAAUACCUCA | 1.07 ± 0.071 |
| GCUCUGGAUACUAUACAACCUCACUACCUCA | 0.00381 ± 0.0028 |
| GGAGACCUAUCUAUACAAGCUACUACCUCA | 0.446 ± 0.029 |
| CCUCUGGAUACUAUACAACUCUACUACCUCA | 0.0034 ± 0.0033 |
| GGUCUGGAUACUAUACUACCUACUACCACA | 1.34 ± 0.13 |
| GGAGACCAUACUAUACAACCUACAACCACA | 0.348 ± 0.034 |
| GGAGACGUUACUAUACAACCAACUACCUCA | 0.117 ± 0.012 |
| GCUCUGGAGUACUAUACAACCUACUACCUCA | 1.79 ± 0.1 |
| GGAGUGGAAACUAAACAACCUACUACCUCA | 1.14 ± 0.082 |
| GGAGACCUAACUAUAGAACGUACUACCUCA | 0.0793 ± 0.015 |
| GGAGAGGAUACUUAACAACCUACUACCUCA | 1.11 ± 0.09 |
| GGACUGGAUACUAUACAACCUACUACCUACA | 0.652 ± 0.064 |
| GGACUGGAUUGUAUACAACCUACUACCUCA | 1.17 ± 0.13 |
| GGAGACCUAUCUAUACAACCUACUACCAUCA | 0.782 ± 0.063 |
| GGAGUGGAUACUAUUCAACCUACUAGCUCA | 0.0654 ± 0.015 |
| GGAGUGGAUAGAUUACAACCUACUACCUCA | 0.325 ± 0.042 |
| GGAGACCUAUGAUUACAACCUACAUGGAGA [g8:g17:cont:t1A] | < 0.0001 |
| GGUCUGGAUAGUAUACAACCUACUACCUCA | 0.761 ± 0.061 |
| CCUCUGGAUACUAUACUACCUAGUACCUCA | 0.16 ± 0.034 |
| GGACUGGAUACUAAUGAACCUACUACCUCA | 0.201 ± 0.037 |
